In PubChem BioAssay AID504333 (National Center for Advancing Translational Sciences (NCATS), 2011):
In all, about 360,000 compounds went through this assay and about 16,000 (4.4%) were called active. The inconclusive results got no clear call from the source; some entries with a clear call stand among them for comparison. Calls come from the whole dose curve; as a rule, active = well fitted inhibition curve with a large enough effect; inconclusive = small, poorly fitted or top-dose-only effect; inactive = no such curve, though single readings can be large or run the other way. Where the call is inconclusive, the potency comes from a doubtful curve fit.

target: Bromodomain adjacent to zinc finger domain protein 2B (Homo sapiens) (UniProt Q9UIF8); assay: qHTS Assay for Inhibitors of BAZ2B; conditions: AlphaScreen BAZ2B-H3K14Ac peptide displacement; series mostly up to 114 µM; note: nearly all actives have a fitted effect of over 60% in size
Sequence of UniProt Q9UIF8 (Q9UIF8 whole entry, looked up, the tested form may be a part): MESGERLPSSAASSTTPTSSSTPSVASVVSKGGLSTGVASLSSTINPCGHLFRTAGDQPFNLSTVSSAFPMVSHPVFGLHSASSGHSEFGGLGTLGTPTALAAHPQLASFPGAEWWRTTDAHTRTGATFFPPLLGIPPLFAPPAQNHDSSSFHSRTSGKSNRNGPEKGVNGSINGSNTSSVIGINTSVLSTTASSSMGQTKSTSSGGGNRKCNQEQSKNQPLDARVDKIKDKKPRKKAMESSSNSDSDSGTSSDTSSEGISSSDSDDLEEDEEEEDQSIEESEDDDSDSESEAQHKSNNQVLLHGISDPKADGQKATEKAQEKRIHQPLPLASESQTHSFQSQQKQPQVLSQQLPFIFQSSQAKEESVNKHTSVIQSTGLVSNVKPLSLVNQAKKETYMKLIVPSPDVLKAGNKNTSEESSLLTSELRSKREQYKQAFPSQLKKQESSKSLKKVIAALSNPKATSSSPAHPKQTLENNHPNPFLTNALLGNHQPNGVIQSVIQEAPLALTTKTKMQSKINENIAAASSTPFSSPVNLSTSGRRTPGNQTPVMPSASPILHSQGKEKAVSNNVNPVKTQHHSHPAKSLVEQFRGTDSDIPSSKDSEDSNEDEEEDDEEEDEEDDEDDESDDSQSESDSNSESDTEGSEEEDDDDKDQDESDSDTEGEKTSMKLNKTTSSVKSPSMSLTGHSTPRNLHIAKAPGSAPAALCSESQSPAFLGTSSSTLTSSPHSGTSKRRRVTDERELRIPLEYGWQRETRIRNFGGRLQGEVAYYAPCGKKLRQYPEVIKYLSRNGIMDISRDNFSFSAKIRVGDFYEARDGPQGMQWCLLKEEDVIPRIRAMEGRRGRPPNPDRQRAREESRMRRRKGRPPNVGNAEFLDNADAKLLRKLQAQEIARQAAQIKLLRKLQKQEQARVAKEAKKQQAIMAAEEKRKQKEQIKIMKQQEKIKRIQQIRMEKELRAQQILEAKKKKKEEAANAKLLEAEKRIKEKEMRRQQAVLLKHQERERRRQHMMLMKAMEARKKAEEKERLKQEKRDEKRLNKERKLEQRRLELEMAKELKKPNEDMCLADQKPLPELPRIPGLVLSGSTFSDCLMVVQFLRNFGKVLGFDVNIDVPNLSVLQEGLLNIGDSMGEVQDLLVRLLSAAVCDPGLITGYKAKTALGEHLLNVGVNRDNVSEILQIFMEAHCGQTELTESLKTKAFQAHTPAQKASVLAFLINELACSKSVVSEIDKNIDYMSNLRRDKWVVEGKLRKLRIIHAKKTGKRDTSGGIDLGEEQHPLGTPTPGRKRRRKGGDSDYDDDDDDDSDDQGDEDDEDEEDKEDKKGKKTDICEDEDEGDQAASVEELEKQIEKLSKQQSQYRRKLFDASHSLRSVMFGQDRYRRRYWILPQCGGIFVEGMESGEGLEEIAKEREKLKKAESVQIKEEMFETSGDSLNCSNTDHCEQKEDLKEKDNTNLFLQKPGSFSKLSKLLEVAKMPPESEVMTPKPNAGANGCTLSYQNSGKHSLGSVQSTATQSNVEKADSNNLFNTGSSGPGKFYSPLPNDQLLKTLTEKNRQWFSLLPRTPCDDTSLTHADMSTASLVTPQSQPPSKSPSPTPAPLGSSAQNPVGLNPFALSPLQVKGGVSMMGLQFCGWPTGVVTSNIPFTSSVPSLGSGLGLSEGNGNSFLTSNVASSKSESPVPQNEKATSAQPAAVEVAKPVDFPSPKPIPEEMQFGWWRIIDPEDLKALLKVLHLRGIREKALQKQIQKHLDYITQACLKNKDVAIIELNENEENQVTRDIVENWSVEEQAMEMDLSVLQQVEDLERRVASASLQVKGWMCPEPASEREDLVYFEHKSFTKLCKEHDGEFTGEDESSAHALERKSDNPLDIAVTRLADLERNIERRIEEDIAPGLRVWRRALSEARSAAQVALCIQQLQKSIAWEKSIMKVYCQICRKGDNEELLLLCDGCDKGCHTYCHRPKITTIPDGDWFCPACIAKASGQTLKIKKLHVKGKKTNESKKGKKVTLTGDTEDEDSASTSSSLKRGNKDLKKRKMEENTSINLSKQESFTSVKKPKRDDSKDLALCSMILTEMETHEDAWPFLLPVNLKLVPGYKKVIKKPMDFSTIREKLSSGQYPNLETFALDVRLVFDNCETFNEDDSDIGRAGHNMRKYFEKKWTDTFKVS
Procedure, shortened: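 Protein-peptide AlphaScreen: BAZ2B 50 nM, b-H3K14Ac 50 nM, 1x PBS pH 7.4 + 0.01% Tween-20. Preincubation 30 min RT; cpd 30 min RT (top 110 uM); beads 20 min RT, light-protected.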
Potency is the fitted concentration of half-maximal effect; tags give direction and shape of the fitted curve.

| Compound | Potency |
| --- | --- |
| CCOC(=O)c1ccccc1NC(=O)NCc1c(-n2cccc2)sc2c1CCCC2 | inconclusive: 89.1 µM [inhibitor, single point] |
| Cc1nn2c(C)nc3sc4c(c3c2nc1=O)CC(C)(C)OC4 | inconclusive: 89.1 µM [inhibitor, single point] |
| COc1ccc(-c2cn3cc(Cl)ccc3n2)cc1OC | inconclusive: 50.1 µM [inhibitor, partial curve] |
| CCCn1c(CCC(=O)O)nc2cc(S(=O)(=O)N(CC)CC)ccc21 | inactive |
| CCC1CCC(C(=O)NC(C(=O)NCCc2ccc(S(N)(=O)=O)cc2)C(C)C)CC1 (stereo not given) | inactive |
| CC1CCN(Cc2ccc(-c3nn[nH]n3)cc2)CC1 | inactive |
| Cc1ccc(-n2nc3c(N4CCC(C(=O)NCc5ccccc5C)CC4)nnc(C)c3c2C)cc1 | inconclusive: 79.4 µM [inhibitor, partial curve] |
| CCN(CC)c1ccc(C=N/C(C#N)=C(\N)C#N)cc1 | inconclusive: 44.7 µM [inhibitor, partial curve] |
| N#C/C(=N\Nc1ccc(S(=O)(=O)N2CCCCC2)cc1)C(N)=S | inconclusive: 39.8 µM [inhibitor, full curve, poor fit] |
| O=[N+]([O-])c1ccc(Oc2ccc(F)cc2)c2ccncc12 | active: 50.1 µM |
| CCOc1ccc(NC(=S)Nc2ccccc2C2(C)CC2)cc1 | inconclusive: 70.8 µM [inhibitor, single point] |
| O=C(/C=C/c1ccc(Cl)cc1Cl)Nc1ccc(CN2CCOCC2)cc1 | inconclusive: 70.8 µM [inhibitor, single point] |
| C=CCc1cccc(CNc2ccc(S(=O)(=O)Nc3nccnc3OC)cc2)c1O | inconclusive: 50.1 µM [inhibitor, partial curve] |
| Cc1ccc2[nH]c(O)c(N=Nc3nc4ccccc4s3)c2c1 | inconclusive: 79.4 µM [inhibitor, single point] |
| O=C1Nc2ccccc2OC1CC(=O)N1CCOCC1 (stereo not given) | inactive |
| O=C(Nc1cc(S(=O)(=O)N2CCOCC2)ccc1N1CCCCC1)c1cc(-c2ccccn2)nc2ccccc12 | inactive |
| N#C/C(=C\c1cccn1-c1ccccc1)C(=O)NC1CCCCC1 | inconclusive: 44.7 µM [inhibitor, partial curve] |
| O=C(COC(=O)c1cnccn1)c1ccc(Cl)cc1 | inconclusive: 89.1 µM [inhibitor, single point] |
| CCc1ccc2[nH]c(=O)c(CN(Cc3ccccc3OC)Cc3nnnn3Cc3ccco3)cc2c1 | inactive |
| Cc1ccc(S(=O)(=O)c2nc(-c3cccc(Br)c3)oc2N2CCCCCC2)cc1 | inconclusive: 3.16 µM [inhibitor, full curve] |
| CCOc1ccc(C(=O)N2CCc3ccccc32)cc1 | inconclusive: 89.1 µM [inhibitor, single point] |
| Cc1cc(C(F)(F)F)nc(SCCN2CCOCC2)c1C#N | inactive |
| CCCCOc1cccc(C2/C(=C(/O)c3ccc4c(c3)CC(C)O4)C(=O)C(=O)N2CCN2CCOCC2)c1 (stereo not given) | inconclusive: 35.5 µM [inhibitor, full curve, poor fit] |
| Cc1ccc(N2C(=O)CC(N(CCc3ccccc3)C(=S)Nc3ccc(N(C)C)cc3)C2=O)cc1 (stereo not given) | inconclusive: 89.1 µM [inhibitor, single point] |

| Compound | Potency |
| --- | --- |
| CC1(C)CN(c2ccccc2)N(C(=O)c2ccc(F)cc2)C1=O | inactive |
| CCN1CCN(c2ccc(S(=O)(=O)N3CCCCC3)cc2NC(=O)/C=C/c2ccc(F)cc2)CC1 | inactive |
| CC1CCN(C(=O)c2ccc3c(c2NCCO)C(=O)c2ccccc2C3=O)CC1 | active: 31.6 µM |
| CCN(CC)CCOC(=O)C(c1ccccc1)c1ccccc1 | inconclusive: 89.1 µM [inhibitor, single point] |
| CCC(=O)Nc1cccc(C2=NOC3(C2)C[C@@H](C(N)=O)N(C(=O)c2cc([N+](=O)[O-])cc([N+](=O)[O-])c2C)C3)c1 (stereo not given in full) | inconclusive: 89.1 µM [inhibitor, single point] |
| CC(C)NC(=O)CSc1nc(N)c(NC(=O)c2ccco2)c(=O)[nH]1 | inactive |
| CCCCNC(=O)c1cn(-c2ccc(OCC)cc2)c(=O)c2cc(OC)c(OC)cc12 | inconclusive: 44.7 µM [inhibitor, partial curve] |
| O=C(O)c1ccccc1C(=O)c1ccc2c(c1)N(Cc1ccc(Cl)c(Cl)c1)C(=O)CO2 | inactive |
| Cc1cc(Cl)ccc1NC(=O)Cn1nc(C)c2c(C)n(-c3ccccc3)nc2c1=O | active: 56.2 µM |
| Cc1ccc2nc(NC(=O)C3CCN(S(=O)(=O)c4cccc5nsnc45)CC3)sc2c1 | inconclusive: 70.8 µM [inhibitor, single point] |
| CC(CN1CCCCC1)c1ccccc1 (stereo not given) | inconclusive: 89.1 µM [inhibitor, single point] |
| CC/C(=N\Nc1ccc([N+](=O)[O-])cc1)c1ccccc1 | inconclusive: 79.4 µM [inhibitor, single point] |
| CCCC(=O)Nc1ccc(-c2csc(N/N=C\c3ccncc3)n2)cc1 | inconclusive: 79.4 µM [inhibitor, partial curve] |
| COc1ccc(N2CCN(C(=O)C3COc4ccccc4O3)CC2)cc1 (stereo not given) | inconclusive: 89.1 µM [inhibitor, single point] |
| COc1cccc(-n2cc(C(=O)Nc3cccc(C(F)(F)F)c3)c3ccccc3c2=O)c1 | inconclusive: 50.1 µM [inhibitor, partial curve] |
| O=C(Nc1ccccc1)Oc1ccc[nH]c1=O | inconclusive: 89.1 µM [inhibitor, single point] |
| COc1cccc(Nc2ccc(Nc3cccc(OC)c3)nn2)c1 | inconclusive: 44.7 µM [inhibitor, partial curve] |
| CCc1ccc(NS(=O)(=O)c2ccc3oc(=O)c4ncn(CC)c4c3c2)cc1 | inconclusive: 79.4 µM [inhibitor, single point] |
| O=c1cc(CSc2ncn[nH]2)[nH]c2ccc(F)cc12 | inactive |
| CCCC[C@]12Cc3cc(OC)c(OC)cc3C(O1)C1=C(O2)C(=O)c2ccccc2C1=O | active: 7.08 µM |
| COc1cccc(-c2nc(NCc3cccnc3)c3ccccc3n2)c1O | inconclusive: 89.1 µM [inhibitor, single point] |
| COC(=O)c1sccc1-c1ccc(C(=O)Nc2cccc(Cl)c2)o1 | inconclusive: 100 µM [inhibitor, single point] |
| O=C(Nc1nnc(-c2cc(Cl)ccc2Cl)o1)C1=COCCO1 | inconclusive: 89.1 µM [inhibitor, single point] |
| CC(C(=O)O)N1c2cccc3cccc(c23)S1(=O)=O (stereo not given) | inconclusive: 89.1 µM [inhibitor, single point] |

| Compound | Potency |
| --- | --- |
| Cc1cccn2c(=O)c3cc(C(=O)NCCN4CCOCC4)c(=N)n(CCN4CCOCC4)c3nc12 | inconclusive: 79.4 µM [inhibitor, single point] |
| Cc1ccc(NC(=S)NCCc2c[nH]c3ccccc23)cc1 | inconclusive: 44.7 µM [inhibitor, partial curve] |
| O=[N+]([O-])c1ccc(N2CCN(CCO)CC2)cc1NCc1ccco1 | inconclusive: 79.4 µM [inhibitor, single point] |
| CC1(C)Cc2c(C#N)c(N)n(-c3ccccc3)c(=O)c2CO1 | inactive |
| c1csc(Cc2nn3c(-c4ccncc4)nnc3s2)c1 | inconclusive: 89.1 µM [inhibitor, single point] |
| CCCCC[C@H](O)/C=C/[C@@H]1[C@@H](C/C=C\CCCC(=O)OC)[C@@H](O)C[C@H]1O | active: 14.1 µM |
| COc1cccc(-n2c(-c3ccccc3)c[nH]c2=S)c1 | inconclusive: 44.7 µM [inhibitor, partial curve] |
| Cc1noc(C)c1S(=O)(=O)Nc1ccccc1OC(F)(F)F | inactive |
| Cn1cccc1CNCC(O)c1ccccc1 (stereo not given) | inconclusive: 70.8 µM [inhibitor, single point] |
| COc1ccc(-c2nc(C#N)c(N3CCCCC3)o2)cc1 | active: 28.2 µM |
| COc1ccc(-n2c(=O)c3ccccc3n(CC(=O)Nc3cc(C)on3)c2=O)cc1OC | inconclusive: 89.1 µM [inhibitor, single point] |
| CCOC(=O)c1sc(NC(=O)C2CC(=O)N(c3ccc4c(c3)OCCO4)C2)nc1C (stereo not given) | inconclusive: 89.1 µM [inhibitor, single point] |
| CC(/C=C/c1ccco1)=N\NC(=O)CNc1ccc2ccccc2c1 | active: 35.5 µM |
| Cc1cc(C)n(-c2nc(N(C)C)nc(N3CCOCC3)n2)n1 | inactive |
| CNc1ccc(SC#N)cc1 | inconclusive: 79.4 µM [inhibitor, single point] |
| O=C(CSc1nnc(Cn2c(=O)sc3ccccc32)n1-c1ccccc1)N1CCOCC1 | inactive |
| CCN(CC)c1ccc(NC(=O)OC)cc1 | inconclusive: 89.1 µM [inhibitor, single point] |
| Cc1ccc(NC(=O)CN2C(=O)N/C(=C\c3cccn3-c3cccc(C(=O)O)c3)C2=O)cc1 | active: 10 µM |
| C/C=C/C(=O)Nc1cccc(C2=NOC3(C2)C[C@@H](C(N)=O)N(C(=O)C(c2ccccc2)c2ccccc2)C3)c1 (stereo not given in full) | inactive |
| C=CCNc1nc(C(=O)OCC(=O)Nc2cccc(SC)c2)cs1 | active: 79.4 µM |
| COc1ccc(NC(=S)NC2CCCCC2)c(OC)c1 | inconclusive: 70.8 µM [inhibitor, partial curve] |
| CN(CC(=O)NCc1ccccc1)S(=O)(=O)c1ccc2c(c1)CCC(=O)N2 | inconclusive: 79.4 µM [inhibitor, single point] |
